Results taken from PubChem BioAssay AID1347073 (National Center for Advancing Translational Sciences (NCATS), 2019).
Hit rate of the full screen: of about 45,000 compounds, about 200 (0.44%) were called active. Another 7% or so got no clear call; they are omitted. Calls follow the shape of the dose curve; as a rule, active = well fitted activation curve with a large enough effect; inconclusive = small, poorly fitted or top-dose-only effect; inactive = no such curve, though single readings can be large or run the other way. The list shows a part of the results.

assay: qHTS of TDP-43 Inhibitors: NCGC Sytravon Library Screen; conditions: yeast TDP-43 toxicity rescue, BacTiter-Glo growth, 24 h; series mostly up to 46.1 µM; growth rescue (activation): at the top concentration; also: 0% is about no effect; nearly all actives have a fitted effect of over 55% in size
How it was run: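 TDP-43-expressing yeast, pregrown in raffinose, seeded at OD600 0.02 in galactose medium with compound for 24 hr at 30 deg C. Growth read by BacTiter-Glo luminescence, so rescue of toxicity appears as activation.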

| Structure (SMILES) | growth rescue (activation) |
| --- | --- |
| O=C(Nc1ccccc1)Nc1ncc([N+](=O)[O-])s1 | inactive: -6.86% |
| COc1ccc(S(=O)(=O)NC(C)C(=O)NCC2CCCO2)cc1OC (configuration not stated) | inactive: -3.51% |
| CC(=O)/C(=C/N(C)C)C(=O)Nc1ccc(Cl)cc1Cl | inactive: -55.1% |
| CC(=O)N(NC(N)=O)C(C)CC(=O)C1C(C)C=CCC1(C)C (configuration not stated) | inactive: 2.26% |
| O=C(COc1ccccc1Cc1ccccc1)NCCCN1CCOCC1 | inactive: 29.4% |
| CN1c2ccccc2C(O)=C(C(=S)Nc2ccc(F)c(Cl)c2)S1(=O)=O | inactive: -86.3% |
| Cn1c(=O)c(C(=O)COc2ccc(C#N)cc2)c(N)n(Cc2ccccc2)c1=O | inactive: 17.4% |
| OC(Cn1cnnc1)c1ccccc1 (configuration not stated) | inactive: -4.09% |
| OCC1(Cc2ccc(Cl)cc2)CCN(Cc2ccc(Oc3ncccn3)cc2)CC1 | inactive: -6.59% |
| COC(=O)c1ccc(NC(=O)c2ccc(NS(=O)(=O)c3cccc4cccnc34)cc2)cc1 | inactive: -4.04% |
| CCN(CC)C(=S)Nc1ccc(OC)cc1 | inactive: 16.2% |
| CCOC(=O)C1(C)CCCN(C(=O)c2cccc(Cl)c2)C1 (configuration not stated) | inactive: 8.57% |
| O=[N+]([O-])c1ccc(-n2nnnc2CN2CCCCC2)cc1 | inactive: 10.4% |
| S=C(NCCN1CCCCC1)Nc1ccc(Br)cc1 | inactive: 1.09% |
| CC(=O)c1cccc(NC(=O)CC2S/C(=N/N=C3CCCCCC3)NC2=O)c1 (configuration not stated) | inactive: -7.73% |
| COc1ccc(C(C)=O)cc1CSc1nnc2c(Cl)cc(Cl)cn12 | inactive: 18.9% |
| CC(C)(C)C(=O)Nc1ccnn1C1CCN(C(=O)c2ccc(Cl)cc2F)CC1 | inactive: -28.5% |
| Cc1cc(C(=O)Nc2cccc3ccccc23)c(C)o1 | inactive: 5.93% |
| CCCN1CCN(CCCNC(=S)Nc2ccc(OC)cc2)CC1 | inactive: 7.23% |
| CC(=O)Nc1cccc(Nc2nc(-c3ccccc3F)nc3ccccc23)c1 | inactive: 8.68% |
| O=C(Nc1cccc(Cl)c1)Nc1c[nH]c(=O)[nH]c1=O | inactive: 8.48% |
| COC(=O)/N=C/c1c(NCc2ccccc2)nc2c(C)cccn2c1=O | inactive: 22.1% |

| Structure (SMILES) | growth rescue (activation) |
| --- | --- |
| CCC(C)C(NC(=O)C1CCC(C)CC1)C(=O)NCc1ccco1 (configuration not stated) | inactive: 1.68% |
| COc1cccc2cc(C(C)N(CCCN3CCOCC3)C(=S)Nc3ccccc3C)oc12 (configuration not stated) | inactive: 11.7% |
| COc1ccc(CNC(=O)CSc2nn3c(=O)c(C(C)(C)C)nnc3s2)cc1OC | inactive: 10.8% |
| CCC1=[N+](CC(=O)c2ccc(C)cc2)CCn2c(C)ccc21 | inactive: 11.6% |
| O=C(NC(=S)Nc1ccc(CN2CCOCC2)cc1)c1ccc([N+](=O)[O-])cc1Cl | inactive: -5.51% |
| CCCN1C(=O)C(Cc2nc3ccccc3c(=O)n2CC)c2ccccc21 (configuration not stated) | inactive: 11% |
| CC1CN(/C=C/C(=O)C(F)(F)F)CC(C)O1 (configuration not stated) | inactive: 12.7% |
| O=C(NCc1ccc(Cl)cc1)c1cccc(NC(=O)c2ccccc2)c1 | inactive: 4.04% |
| O=C(/C=C/Nc1ccc(Oc2ccccc2)cc1)c1ccco1 | inactive: -5.42% |
| CN1CCN(c2nc(N3CCN(CCO)CC3)nc3ccccc23)CC1 | inactive: 13.5% |
| CC(C)CN1C(=O)c2ccc(C(=O)Nc3nccs3)cc2C1=O | inactive: -8.59% |
| CCN(Cc1cc(=O)n2ccsc2n1)Cc1nc2ccccc2c(=O)[nH]1 | inactive: -4.1% |
| CC(C)S(=O)(=O)C1=NSC2=NC(=O)/C(=C\c3ccc(-c4cccc(C(=O)O)c4)o3)C(=N)N21 | inactive: 7.64% |
| Cn1cccc2[nH]c(=O)nc1-2 | inactive: 7.85% |
| O=C(O)C1CCCN1S(=O)(=O)c1ccc(Br)s1 (configuration not stated) (tested in a mixture with another compound) | inactive: 7.19% |
| COc1ccc(NC(=O)c2ccccc2SC)cc1 | inactive: 23.1% |
| O=C(CCN1CCCCO1)N1CCCC(Nc2cccc(F)c2)C1 (configuration not stated) | inactive: 9.64% |
| Cc1ccc(NC(=O)O/N=C/c2cccc([N+](=O)[O-])c2)cc1 | inactive: 13.5% |
| CS(=O)(=O)N(CC(=O)N1CCCCC1)Cc1ccc(Cl)cc1 | inactive: 5.24% |
| Cc1c(F)cccc1NS(=O)(=O)c1ccc(N2CCCC2=O)cc1 | inactive: 4.05% |
| COc1ccc(N(CC(=O)NCc2ccc(F)cc2)C(=O)CCC(=O)Nc2nccs2)cc1 | inactive: -3.2% |
| Cc1cc(=O)[nH]c(N2CCN(c3ccc(Cl)cc3)CC2)n1 | inactive: -5.37% |

| Structure (SMILES) | growth rescue (activation) |
| --- | --- |
| Cc1ccc(-n2nnnc2SCC(=O)Nc2cc(C)on2)c(C)c1 | inactive: 5.19% |
| Cc1ccc(CNC(=O)CN(C(=O)C2(C)CC(=O)N=C3C=CC=CN32)c2ccccc2F)cc1 (configuration not stated) | inactive: -24.3% |
| Cc1ccc(S(=O)(=O)N2CCOCC2)cc1NC(=O)COC(=O)C1COc2ccccc2O1 (configuration not stated) | inactive: 11.6% |
| Cc1ccccc1Cn1c(O)c(N=NC(=S)Nc2ccccc2F)c2ccccc21 | inactive: 13.8% |
| COc1ccccc1-n1c(=O)c(C#N)c(-c2ccc([N+](=O)[O-])cc2)c2cc(C(=O)c3cc(F)ccc3O)cnc21 | inactive: -9.36% |
| COc1ccc(S(=O)(=O)N2CCCCC2)cc1NS(=O)(=O)c1ccccc1 | inactive: 5.72% |
| COc1ccc(N(Cc2cc(=O)[nH]c3ccccc23)C(C)=O)cc1 | inactive: 9.34% |
| O=S(=O)(NC1=NCCCCC1)c1ccc(F)cc1 | inactive: 17.6% |
| CCOC(=O)C1CCCN(S(=O)(=O)c2ccc(S(N)(=O)=O)cc2)C1 (configuration not stated) | inactive: 12.5% |
| CSc1ncccc1C(=O)OCC(=O)N1CC2(C)CC1CC(C)(C)C2 (configuration not stated) | inactive: -8% |
| CC1CCN(c2c(NCC3CCC(C(=O)NCCc4ccc(Cl)cc4)CC3)c(=O)c2=O)CC1 (configuration not stated) | inactive: -13.9% |
| CCCc1nnc(SCC(=O)Nc2nc(C)cs2)n1CCOC | inactive: -9.31% |
| CCc1nc2c(OCC(=O)c3ccc(F)cc3)cccn2c1N(C)C(=O)C(C)C | inactive: 6.13% |
| CCCN(CCC)S(=O)(=O)c1cc2c(cc1Br)CCN2C(=O)CC | inactive: -16% |
| CCc1nc2ccc(C(=O)NCCCn3ccnc3)cn2c1N(C)Cc1ccc(OC)cc1 | inactive: -0.258% |
| CCC(CC)C(=O)OCC(=O)Nc1cccc(S(=O)(=O)N(C)c2ccccc2)c1 | inactive: 1.39% |
| CN(NS(C)(=O)=O)c1c(C#N)c(C(F)(F)F)nn1C | inactive: -6.9% |
| O=C(COC(=O)COc1ccccc1[N+](=O)[O-])Nc1ccc2c(c1)OCO2 | inactive: 11.8% |
| Cc1ccccc1CNC(=O)C(C)n1nc(C)n2c(cc3occc32)c1=O (configuration not stated) | inactive: 7.15% |
| Nc1nnc(SCc2ccc([N+](=O)[O-])cc2)s1 | inactive: 4.88% |
| COc1ccc(CC(=O)OCC(=O)NCc2ccc3c(c2)OCO3)cc1OC | inactive: 12.5% |
| O=C(NC1CCN(C(=O)NCc2ccccc2)CC1)c1ccc(F)cc1 | inactive: -0.833% |

| Structure (SMILES) | growth rescue (activation) |
| --- | --- |
| CC(C)c1nnc(NC(=O)COc2ccc3c(c2)OCO3)s1 | inactive: 10.5% |
| Cc1ccc(C)c(NC(=O)CCN2CCc3ccccc3C2)c1 | inactive: 12.2% |
| Cc1ccc(C)c(C(=O)CN2C(=O)c3ccccc3C2=O)c1 | inactive: 10.9% |
| CCCNC(=O)C1(C)CCN(C(=O)c2ccccc2OC(F)(F)F)C1 (configuration not stated) | inactive: -5.6% |
| CCCCn1c(=O)[nH]c(=O)c2c1nc(-c1ccccn1)n2CC | inactive: 7.45% |
| O=C(N/N=C/c1cccc([N+](=O)[O-])c1)c1c[nH]c2ccccc12 | inactive: 3.31% |
| CC(=O)c1ccc(NC(=O)CSc2nc(=O)cc(N)n2-c2ccccc2)cc1 | inactive: -4.33% |
| CC(C)(C)N(Cc1ccccc1)C(=O)COC(=O)c1ccc2ccccc2n1 | inactive: -1.08% |
| COc1ccc(Cl)cc1NC(=O)[C@@H]1CCCN1C(=O)c1cccs1 | inactive: 10.8% |
| CCOC(=O)c1sc(NCCNc2nc(C)c(C(=O)OCC)s2)nc1C | inactive: 20.8% |
| COc1ccc(NC(=O)CSc2nc3nc(C)cc(C)n3n2)cc1 | inactive: 6.88% |
| COc1cccc(CNC(=O)CCc2nnc3n(C)c(=O)c4sccc4n23)c1 | inactive: 13.5% |
| O=C(Nc1cccc(NC(=O)N2CCN(c3ccccc3)CC2)c1)N1CCN(c2ccccc2)CC1 | inactive: -11.3% |
| CCOc1ccc(CN(C)Cc2cc(=O)oc3cc(C)c(Cl)cc23)cc1 | inactive: 7.7% |
| CC(NC(=O)c1cc(Br)ccc1Cl)c1ccccc1 (configuration not stated) | inactive: 17.9% |
| CCOc1cc2c(cc1OCC)C(c1ccccc1)N(c1ccc(C(=O)O)cc1)C(=O)C2 (configuration not stated) | inactive: -12.4% |
| CCCCNC(=O)/C=C/c1cccs1 | inactive: 8.71% |
| O=C(O)C(c1ccccc1)N1C(=O)/C(=C/c2cccs2)SC1=S (configuration not stated) | inactive: 29.8% |
| COCc1c(Br)c(C)nc2sc3c(=O)[nH]nnc3c12 | inactive: -12.6% |
| CN1CCN(S(=O)(=O)c2ccc(NC(=O)COc3ccccc3Cl)cc2)CC1 | inactive: 7.37% |
| O=C(CSc1nc(-c2cccs2)cc(C(F)(F)F)n1)Nc1cc(OCC(F)(F)F)cc([N+](=O)[O-])c1 | inactive: 16% |
| CCc1cc(=O)n2[nH]c(-c3ccccc3)c(-c3ccccc3)c2n1 | inactive: -3.6% |

| Structure (SMILES) | growth rescue (activation) |
| --- | --- |
| COc1ccc(C2(C)NC(=O)N(CC(=O)NCC(=O)Nc3ccc(F)c(F)c3F)C2=O)cc1OC (configuration not stated) | inactive: 2.67% |
| O=C(Nc1ccc2c(c1)OCCO2)C1CC(O)CN1C(=O)Nc1ccccc1 (configuration not stated) | inactive: -15.5% |
| CCn1c(CN2CCC(C)CC2)nc2cc(NC(=O)c3ccccc3[N+](=O)[O-])ccc21 | inactive: 14.7% |
| CCOc1ccc(-n2c(-c3ccc(Cl)cc3)c[n+]3c2SCC3)cc1 | inactive: 4.41% |
| Cc1ccc(CNC(=O)CCCc2c[nH]c3ccccc23)cc1 | inactive: 33.8% |
| O=C(CSc1nnc(-c2ccccc2Br)o1)N1CCOCC1 | inactive: -2.93% |
| CC1=NN(C(=O)COc2ccc(C)c(C)c2)C(O)(c2ccccc2)C1 (configuration not stated) | inactive: 7.92% |
| O=C(Nc1cc(Sc2nc3ccccc3s2)cc([N+](=O)[O-])c1)c1cccc(F)c1F | inactive: -13.4% |
| OC(c1ccc(F)c(F)c1)c1nc(-c2cc(F)cc(F)c2)cs1 (configuration not stated) | inactive: -39.7% |
| CC(=O)c1c(C)[nH]c(C(=O)Nc2cccc(C)c2C)c1C | inactive: 19.4% |
| O=C(O)CCC(=O)NNc1ncnc2ccccc12 | inactive: -0.0203% |
| CCN(C(=O)COC(=O)C12CC3CC(CC(NC(C)=O)(C3)C1)C2)C1CCCCC1 | inactive: 28.8% |
| Nc1c(NCCN2CCCCC2)c2ccccc2oc1=O | inactive: 11.4% |
| N/C(=N\c1nc2ccccc2o1)NC(=O)c1ccc([N+](=O)[O-])cc1 | inactive: 10.7% |
| O=C(O)C1CCN(S(=O)(=O)c2cccs2)CC1 | inactive: 11.2% |
| Cn1c(NCCc2ccccc2)cc(=O)n(C)c1=O | inactive: -11.8% |
| COc1ccc(Cc2nnc(NC(=O)Nc3ccccc3OC)s2)cc1 | inactive: -0.196% |
| Cc1cc(NC(=O)c2ccc3c(c2)C(=O)N(c2cccc(C)c2C)C3=O)no1 | inactive: 22.4% |
| CCc1nnc(NC(=O)CCC(=O)NC2CCCc3ccccc32)s1 (configuration not stated) | inactive: 1.9% |
